Results taken from US12338279B2, “Selective and potent inhibitory antibodies of myostatin activation” (SCHOLAR ROCK, INC., priority 2022, dated 2025).

Columns and labels:
[1] = system: biotinylated human pro-myostatin; experiment: Biacore 8k SPR binding affinity, human pro-myostatin
Source text: The Biacore™ 8 k SPR system was utilized to evaluate the binding affinity of myostatin antibodies to biotinylated human, murine, and cyno pro-myostatin. Biotin CAPture kit and sensor chips (Cytiva) were utilized in these experiments to immobilize the various antigens, followed by flowing a range of concentrations of each of the test antibodies.

total myostatin in serum = experiment: Total serum myostatin (PD) in obese mice with or without semaglutide (Example 8); format: in vivo, mouse; settings: 0.1 to 3 mg/kg, alone or with semaglutide; FIG. 16B
Method: (§1) Male 19 week old C7/BL6 mice fed a high fat diet to induce obesity (DIO-B6-M mice, were evaluated for the effect of the combination of antibody and semaglutide on the exposure of the antibody to the target antigen (PK) and the total myostatin serum level (PD), as shown in Table 25. Animals were dosed with antibody intraperitoneally on days 0, 7, and 14 and were dosed with semaglutide subcutaneously daily throughout the study. Exposure of the antibody to immobilized promyostatin was determined by ELISA. Total serum myostatin was also measured by ELISA. The study concluded on day 22, when terminal bleeds were obtained.

[2] = system: free latent myostatin in serum; experiment: Serum free latent myostatin (not bound by antibody); format: in vivo, mouse
Source text: Serum clearance: As used herein, the term “serum clearance” or “clearance” refers to a relative pharmacokinetic/pharmacodynamic behavior pertaining to changes in serum concentrations (e.g., circulating levels) of an analyte (e.g., target protein or protein complex) over time. When the analyte being measured accumulates in the serum, it is said to have slow clearance. By contrast, when the analyte being measured is removed (“cleared”) rapidly from the serum, it is said to have fast clearance. Serum clearance in vivo may occur via multiple mechanisms, including, for example, targeted degradation, Fc-mediated internalization, etc. For example, serum clearance of circulating myostatin may be measured with an assay for determining binding of an antibody to free myostatin in serum (circulating myostatin that is not bound by the antibody). Such an assay may involve immobilizing a biotinylated capture antibody known to bind pro and latent myostatin, before adding a sample comprising myostatin to test the ability of the antibody to bind to the free myostatin and adding a detection antibody with a detectable marker.
In another embodiment, a pharmacodynamic assay, can be performed by measuring the binding of the antibodies to serum free latent myostatin (i.e., circulating latent myostatin that is not bound by the antibody). […]
as §1

Ka [1]: 6.62e+06 M⁻¹ s⁻¹
Kd (1/s) [1]: 0.000196 s⁻¹
B1: Ab109: anti-pro/latent myostatin antibody; CDRs in Tables 2d-f, variable domains Table 3, chains Table 4 (antibody)
heavy: EVQLVESGGGLVQPGGSLRLSCAASGFTFSSYGMSWVRQAPGKGLELVASFTGSGGTYYPDSVKGRFTISRDNAKNSLYLQMNSLRAEDTAVYYCARDLLIRFLEWSHYYGMDVWGQGTTVTVSSASTKGPSVFPLAPCSRSTSESTAALGCLVKDYFPEPVTVSWNSGALTSGVHTFPAVLQSSGLYSLSSVVTVPSSSLGTKTYTCNVDHKPSNTKVDKRV[human IgG4 Fc with S228P (EU numbers) left out]
light: DIVMTQSPLSLPVTPGEPASISCRSSQSLLHSSGHNFLHWYLQKPGQSPQLLIYEVSNRVSGVPDRFSGSGSGTDFTLKISRVEAEDVGVYYCMQQTQYPPTFGGGTKVEIKRTVAAPSVFIFPPSDEQLKSGTASVVCLLNNFYPREAKVQWKVDNALQSGNSQESVTEQDSKDSTYSLSSTLTLSKADYEKHKVYACEVTHQGLSSPVTKSFNRGEC
serum total myostatin (PD) (total myostatin in serum): not affected by the presence of semaglutide
free latent myostatin levels in the serum ([2]; 2 mg/kg and 20 mg/kg doses, FIG. 17): reduce free latent myostatin levels in the serum
serum free latent myostatin (not bound by antibody) ([2]; 0.1 to 3 mg/kg, 22 days, presence or absence of semaglutide, FIG. 16C): reduced below the level of quantitation
